Reference: PMC4336329 (PLoS ONE, 2015)
The whole screen tested about 310,000 compounds, of which about 2,200 (0.71%) showed an effect of 50% or more. The effect is printed as a negative number. Some of the results follow.

The compounds below were run against human ether-à-go-go-related gene (hERG) potassium channel (human, UniProt Q12809) (assay: primary screen, population patch clamp on CHO cells stably expressing hERG).
Chain of human ether-à-go-go-related gene (hERG) potassium channel (Q12809 whole entry, looked up): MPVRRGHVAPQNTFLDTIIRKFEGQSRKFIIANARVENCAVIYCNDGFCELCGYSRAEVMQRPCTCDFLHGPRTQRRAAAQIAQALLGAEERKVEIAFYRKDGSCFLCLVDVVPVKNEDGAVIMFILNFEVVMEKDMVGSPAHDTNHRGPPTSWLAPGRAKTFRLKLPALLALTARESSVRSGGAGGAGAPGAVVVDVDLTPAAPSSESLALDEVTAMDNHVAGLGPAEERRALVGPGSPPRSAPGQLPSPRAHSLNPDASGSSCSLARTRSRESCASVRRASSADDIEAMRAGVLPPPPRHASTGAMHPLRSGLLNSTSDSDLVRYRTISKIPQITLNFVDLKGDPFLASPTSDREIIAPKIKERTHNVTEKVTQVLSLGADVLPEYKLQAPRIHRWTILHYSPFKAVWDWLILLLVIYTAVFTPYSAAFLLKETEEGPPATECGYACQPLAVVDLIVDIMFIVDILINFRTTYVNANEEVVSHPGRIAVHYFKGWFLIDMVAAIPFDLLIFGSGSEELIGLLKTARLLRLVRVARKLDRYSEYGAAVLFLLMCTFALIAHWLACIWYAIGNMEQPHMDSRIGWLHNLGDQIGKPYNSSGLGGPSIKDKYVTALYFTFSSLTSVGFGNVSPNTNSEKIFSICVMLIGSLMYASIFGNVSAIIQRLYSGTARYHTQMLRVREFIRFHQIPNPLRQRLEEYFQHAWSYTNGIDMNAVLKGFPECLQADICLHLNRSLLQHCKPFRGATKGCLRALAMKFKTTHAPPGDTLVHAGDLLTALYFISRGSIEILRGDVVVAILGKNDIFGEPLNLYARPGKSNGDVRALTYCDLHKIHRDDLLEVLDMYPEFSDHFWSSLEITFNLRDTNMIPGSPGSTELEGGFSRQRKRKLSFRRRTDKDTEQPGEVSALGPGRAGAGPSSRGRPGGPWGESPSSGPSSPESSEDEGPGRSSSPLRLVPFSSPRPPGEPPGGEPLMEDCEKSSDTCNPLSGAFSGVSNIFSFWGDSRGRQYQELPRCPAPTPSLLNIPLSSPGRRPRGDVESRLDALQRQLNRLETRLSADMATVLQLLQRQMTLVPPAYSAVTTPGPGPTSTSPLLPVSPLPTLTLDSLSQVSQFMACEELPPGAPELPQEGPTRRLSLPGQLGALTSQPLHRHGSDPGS

Compared with `Cc1ccc(-n2nc3c(c2NC(=O)c2ccc4c(c2)OCO4)CS(=O)C3)c(C)c1` (centres unmarked), `O=C(NCc1nnc2c(C(F)(F)F)cc(Cl)cn12)c1ccc2c(c1)OCO2` is higher in “hERG current change (%, negative = inhibition) at 1uM” value: 3.77% for the first, 17.4% for the second.

Compared with `COc1ccc(C2C(C(C)=O)=C(O)C(=O)N2CCCn2ccnc2)cc1` (centres unmarked), `O=C(C1=C(O)C(=O)N(CCc2ccccc2)C1c1ccncc1)c1cc2ccccc2o1` (centres unmarked) is lower in “hERG current change (%, negative = inhibition) at 1uM” value: 13% for the first, 3.54% for the second.

First: CCOC(=O)C1=C(COC(=O)c2cc(OC)c(OC)cc2[N+](=O)[O-])NC(=O)NC1C (centres unmarked)
Second: COc1ccc(NC(=O)CN(C)S(=O)(=O)c2ccc3c(c2)CCC(=O)N3)c(OC)c1
The “hERG current change (%, negative = inhibition) at 1uM” value of the first is higher: 12.4% for the first, -8.53% for the second.

Compared with `Cn1c(SCc2ccccc2)nc2c1c(=O)[nH]c(=O)n2C`, `Nn1c(SCc2ccc([N+](=O)[O-])cc2)nc2ccccc2c1=O` is higher in “hERG current change (%, negative = inhibition) at 1uM” value: 12% for the first, 14.4% for the second.

First: COC(=O)c1ccc(C(=O)OC)c(NC(=O)CSCC(=O)O)c1
Second: NC(=O)c1ccsc1NC(=O)COC(=O)CNC(=O)c1cccc([N+](=O)[O-])c1
The “hERG current change (%, negative = inhibition) at 1uM” value of the first is higher: 14.2% for the first, 7.42% for the second.

First: O=C(CCN1CCCO1)N1CCCC(N2CCN(c3cccc(C(F)(F)F)c3)CC2)C1 (centres unmarked)
Second: Cc1[nH]c(=O)[nH]c(=O)c1S(=O)(=O)N1CCCC(C(=O)N2CCN(c3cccc(C(F)(F)F)c3)CC2)C1 (centres unmarked)
The “hERG current change (%, negative = inhibition) at 1uM” value of the first is lower: -2.98% for the first, 15.4% for the second.

First: O=C1c2ccccc2C(Nc2ccc3c(c2)OCCO3)N1Cc1ccccc1 (centres unmarked)
Second: Cl.OCCN(Cc1ccccc1)CC(O)COc1ccc2c(c1)OCO2 (centres unmarked)
The “hERG current change (%, negative = inhibition) at 1uM” value of the first is lower: 1.31% for the first, 8.49% for the second.

Compared with `C=CCNC(=O)C1CC(c2cccc(OC)c2)=NO1` (centres unmarked), `COc1ccc(C2=NOC(CN3C(=O)c4ccccc4S3(=O)=O)C2)cc1` (centres unmarked) is lower in “hERG current change (%, negative = inhibition) at 1uM” value: 6.1% for the first, -6.81% for the second.

Going from `Cc1nc2c(cc1NC(=O)C(C)(C)C)nc(C)n2Cc1ccccc1` to `Cc1nc2ncnn2c(C)c1CCC(=O)NCc1ccccc1`, the “hERG current change (%, negative = inhibition) at 1uM” value falls from 13.2% to -4.34%.

Compared with `COc1cc2[nH]c(C(=O)NCC3CCCO3)cc2c(OC)c1OC` (centres unmarked), `COc1cccc(CN2CCCC(C(=O)c3ccc4c(c3)OCO4)C2)c1OC` (centres unmarked) is lower in “hERG current change (%, negative = inhibition) at 1uM” value: 18.3% for the first, -25.3% for the second.

Going from `COc1ccc(C(=O)NCc2cn3ccccc3n2)cc1` to `COc1ccc(CNC(=O)c2cc(=O)c3ccccc3o2)cc1`, the “hERG current change (%, negative = inhibition) at 1uM” value falls from 12.9% to 12.4%.

First: O=[N+]([O-])c1cccc(NP(=O)(Oc2ccccc2)Oc2ccccc2)c1
Second: Nc1ccc(C(=O)N/N=C/c2cccc(Oc3ccccc3)c2)cc1
The “hERG current change (%, negative = inhibition) at 1uM” value of the first is lower: -2.03% for the first, 13.1% for the second.

First: O=C1NC(=Nc2ccccc2Cl)SC1(CO)CO
Second: O=C1NC(=Nc2ccccc2)SC1Cc1cccc(Cl)c1Cl (centres unmarked)
The “hERG current change (%, negative = inhibition) at 1uM” value of the first is higher: 10.2% for the first, 7.27% for the second.

First: COCc1ccc(C(=O)N2CCCC(C(=O)c3cc(F)ccc3F)C2)s1 (centres unmarked)
Second: COc1cc(C(=O)N2CCCCC2)ccc1OCC(=O)Nc1ccc(F)cc1
The “hERG current change (%, negative = inhibition) at 1uM” value of the first is lower: 7.23% for the first, 9.45% for the second.

Compared with `Cc1ccc(S(=O)(=O)Nc2ccc(-c3cn4ccc(C)cc4n3)cc2)cc1`, `CCOC(=O)c1oc2ccc(S(=O)(=O)n3nc(-c4ccc(C)cc4)cc3N)cc2c1C` is lower in “hERG current change (%, negative = inhibition) at 1uM” value: 8.97% for the first, 7.43% for the second.

First: CC1CCN(CCn2c(=S)[nH]c3cc4c(cc3c2=O)OCO4)CC1
Second: O=C(C1CCN(S(=O)(=O)c2cnc[nH]2)CC1)N1CCN(Cc2ccc3c(c2)OCO3)CC1
The “hERG current change (%, negative = inhibition) at 1uM” value of the first is lower: 0.738% for the first, 3.08% for the second.

Going from `COCCN(Cc1ccccc1)P(=O)(O)c1ccccc1OCC(=O)O` to `COc1ccccc1N(CC(=O)NCc1ccco1)C(=O)CCC(=O)Nc1ccccn1`, the “hERG current change (%, negative = inhibition) at 1uM” value falls from 9.21% to 7.79%.

First: COC(=O)/C(C#N)=C/c1c(Oc2cccc(C)c2)nc2ccccn2c1=O
Second: COc1cc(/C=C2/C(=O)NN(c3cccc(C)c3)C2=O)ccc1OC(=O)c1ccco1
The “hERG current change (%, negative = inhibition) at 1uM” value of the first is lower: 4.32% for the first, 11.3% for the second.

Going from `CCC(NC(=O)c1cncc(Br)c1)c1ccccc1` (centres unmarked) to `CCN(CC)S(=O)(=O)c1cccc(C(=O)Nc2cccnc2)c1`, the “hERG current change (%, negative = inhibition) at 1uM” value falls from 12.2% to 2.33%.

Compared with `COc1ccc(/C=C/C(=O)NCCC(=O)N2CCCN(C)CC2)cc1`, `COc1ccc(C(=O)N2CCN(Cc3ccccc3[N+](=O)[O-])CC2)cc1.O=C(O)C(=O)O` is lower in “hERG current change (%, negative = inhibition) at 1uM” value: 1.16% for the first, -20.9% for the second.

Going from `CC(C)OCCCNC(=O)c1ccc(NS(C)(=O)=O)cc1` to `CCO/C=C/C(O)(CNC(=O)c1ccc(C(C)(C)C)cc1)C(F)(F)F` (centres unmarked), the “hERG current change (%, negative = inhibition) at 1uM” value falls from 10.1% to 6.36%.

First: O=C(NCc1ccccc1Cl)C1CCCO1 (centres unmarked)
Second: O=C(N/N=C/c1c(Cl)cccc1Cl)C(=O)NC1CC1
The “hERG current change (%, negative = inhibition) at 1uM” value of the first is lower: 7.94% for the first, 16.3% for the second.

Compared with `Cc1ccc(NC(=O)CNC(=O)N2CC(=O)Nc3ccccc32)cc1F`, `Cc1onc(-c2ccccc2)c1CNC(=O)Nc1ccc(C(F)(F)F)cc1` is lower in “hERG current change (%, negative = inhibition) at 1uM” value: 14.3% for the first, 13.8% for the second.

Compared with `Cc1cc(C)cc(OCCN2CCOCC2)c1`, `CCOc1nc(NCCN2CCOCC2)nc(NC(C)C)n1` is lower in “hERG current change (%, negative = inhibition) at 1uM” value: 15.9% for the first, 0.245% for the second.

First: Cc1cc(NC(=O)COC(=O)C2CCN(C(=O)c3ccc(Cl)cc3)CC2)no1
Second: COc1cccc(C(=O)NNC(=O)Cc2ccc(Cl)cc2)c1
The “hERG current change (%, negative = inhibition) at 1uM” value of the first is lower: 4.08% for the first, 15.5% for the second.

Compared with `Cc1ccc(C)c(N(C)S(=O)(=O)c2cccc3nsnc23)c1`, `Cc1ccc2c(c1)C1CN(C)CCC1N2C(=O)COc1ccc(N(C)S(=O)(=O)c2cccs2)cc1` (centres unmarked) is lower in “hERG current change (%, negative = inhibition) at 1uM” value: 13.5% for the first, -5.56% for the second.

Going from `CCC(C)NC(=O)c1ccc(CSc2nc3ccncc3n2Cc2ccc(F)cc2)cc1` (centres unmarked) to `Cn1c(-c2ccc(F)cc2)cnc1SCC(=O)NCc1ccco1`, the “hERG current change (%, negative = inhibition) at 1uM” value rises from -1.06% to 3.7%.

Compared with `COc1ccccc1/C=[N+](\[O-])C1SC(=S)N(C)C1(C)C` (centres unmarked), `COc1ccccc1C1OC(c2cccc([N+](=O)[O-])c2)=NN1C(C)=O` (centres unmarked) is lower in “hERG current change (%, negative = inhibition) at 1uM” value: 13.5% for the first, -8.51% for the second.

Going from `O=C(O)/C(=C\c1cccc(F)c1)c1ccc(S(=O)(=O)N2CCCCC2)s1` to `COc1ccc(-c2cccc(C(=O)N3CCOCC3)c2)cc1`, the “hERG current change (%, negative = inhibition) at 1uM” value rises from 13.3% to 16.6%.

Going from `O=C1N/C(=C/c2ccc(N3CCOCC3)cc2)C(=O)N1Cc1ccc(F)cc1` to `CN1C(=O)NC(c2ccccc2)(C(F)(F)F)S/C1=C(/C#N)c1nnc(N2CCOCC2)n1-c1ccccc1` (centres unmarked), the “hERG current change (%, negative = inhibition) at 1uM” value falls from 17.1% to -9.45%.

Compared with `CCOC(=O)N1CCN(C(=O)CS(=O)(=O)Cc2nc(-c3ccccc3C)oc2C)CC1`, `CCOC(=O)CN1CC23C=CC(O2)C(C(=O)N2CCN(c4ccc(F)cc4)CC2)C3C1=O` (centres unmarked) is higher in “hERG current change (%, negative = inhibition) at 1uM” value: -25.2% for the first, 6.27% for the second.

Compared with `COc1ccc(OC)c(NC(=O)CN(C)CC(=O)Nc2ccccc2Cl)c1`, `COc1cc(OC)cc(C(=O)NCCNC(=O)c2ccccc2)c1` is higher in “hERG current change (%, negative = inhibition) at 1uM” value: 0.169% for the first, 6.93% for the second.

First: Fc1ccc(C2=Nn3c(Cc4ccccc4F)nnc3SC2)cc1
Second: CCOC(=O)Cc1ccc2sc(-c3ccccc3)nc2c1
The “hERG current change (%, negative = inhibition) at 1uM” value of the first is higher: 19.7% for the first, 7.91% for the second.

First: CC1CCc2nc3ccccc3c(C(=O)OCC(=O)N3CCc4ccccc43)c2C1 (centres unmarked)
Second: COc1cc(/C=N/NC(=O)c2cc(-c3ccccc3)nc3ccccc23)ccc1O
The “hERG current change (%, negative = inhibition) at 1uM” value of the first is higher: 15.9% for the first, 8.39% for the second.

Compared with `CC1CCN(S(=O)(=O)c2cc(C(=O)NC3(C)CCS(=O)(=O)C3)ccc2Br)CC1` (centres unmarked), `Cc1ccc(NC(=O)CN2C(=O)C(=O)N(C3CCCC3)C2=O)cc1Cl` is higher in “hERG current change (%, negative = inhibition) at 1uM” value: -2.52% for the first, -2.48% for the second.

First: COc1ccc(-c2nc(-c3cccnc3)no2)cc1
Second: COC(=O)c1sccc1NN1C(=O)c2ccccc2C1=O
The “hERG current change (%, negative = inhibition) at 1uM” value of the first is lower: 9.06% for the first, 13.1% for the second.

Compared with `O=[N+]([O-])c1cccc(-c2n[nH]c(=S)n2Cc2ccccc2)c1`, `CCC(Cc1ccccc1)n1c(=S)[nH]c2ccccc2c1=O` (centres unmarked) is lower in “hERG current change (%, negative = inhibition) at 1uM” value: 4.74% for the first, 0.335% for the second.

Going from `CCOC(=O)N1CCC(N(CCN(C)C)C(=S)Nc2ccc(Oc3ccccc3)cc2)CC1` to `O=C(Nc1ccc(NC(=O)C2CCCN2C(=O)OCc2ccccc2)cc1)c1ccco1` (centres unmarked), the “hERG current change (%, negative = inhibition) at 1uM” value falls from 13.3% to 10.6%.

Compared with `Cc1c(Cl)c([N+](=O)[O-])nn1CC(=O)NC12CC3CC(CC(C3)C1)C2`, `CC(=O)C1=C(C)N2CCN=C2S1` is higher in “hERG current change (%, negative = inhibition) at 1uM” value: 7.91% for the first, 9.59% for the second.

Compared with `CCOc1ccc2oc(C(=O)NC3CC(C)(C)NC(C)(C)C3)c(C)c2c1`, `CN(CCOC(=O)c1ccc2c(c1)OCO2)C(C)(C)C.Cl` is lower in “hERG current change (%, negative = inhibition) at 1uM” value: 13.8% for the first, 6.18% for the second.

Going from `O=C(NNc1nc2cc3c(cc2s1)OCCO3)c1ccc(F)cc1` to `O=C(O)c1ccc(Oc2ccc(S(=O)(=O)c3ccc(C(=O)O)c(C(=O)O)c3)cc2)cc1`, the “hERG current change (%, negative = inhibition) at 1uM” value rises from 3.54% to 11.8%.

First: NC(=O)CCS(=O)(=O)c1ccc(Cl)cc1
Second: CCC1(C)Cc2c(sc3c2c(=O)n(C)c2nnc(SCCc4ccccc4)n32)CO1 (centres unmarked)
The “hERG current change (%, negative = inhibition) at 1uM” value of the first is lower: -8.41% for the first, 0.706% for the second.

First: Cc1c2c([n+]3n1CCC3)CC(C)(C)CC2=O.[Br-]
Second: O=c1c2[nH]c3ccccc3c2ncn1C1CCCCC1
The “hERG current change (%, negative = inhibition) at 1uM” value of the first is higher: 22.7% for the first, -2.89% for the second.
